Measured values taken from the supplement of paper PMC4967469.
Lines with a small IC50 respond at low doses; fits outside the tested doses are given as limits. AUC sums up the same curve from the lowest dose to the 256-fold higher top dose; the more sensitive the line, the further below 1. For part of these data: Where the top dose is marked as inferred, it is not printed in the source and was worked back from the curve model. For part of these data: Drugs with an entry number were screened twice under separate entries, and the two screens often disagree.

Columns and labels:
Assay in all cases: Viability of human cancer cell lines after 72 h of drug (GDSC screen)
Tretinoin = compound: CC1=C(/C=C/C(C)=C/C=C/C(C)=C/C(=O)O)C(C)(C)CCC1 [Tretinoin]; conditions: top dose 10 µM; top dose inferred
Method: (§1)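 Human cancer cell lines in 384-well plates, medium with 10% serum, drug for 72 h over a 256-fold dose range (nine 2-fold or five 4-fold steps up to the top dose). Adherent lines were fixed and stained with the nucleic acid dye Syto60, suspension lines read with resazurin; signal relative to control wells, capped at 0 and 100%. One two-parameter sigmoid per drug and line, fitted in a mixed model over all curves with the slope shared within a line.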

GSK690693 = compound: CCn1c(-c2nonc2N)nc2c(C#CC(C)(C)O)ncc(OC[C@H]3CCCNC3)c21 [GSK690693]; conditions: top dose 10.24 µM; top dose inferred
Method: as §1

UNC0638 = compound: COc1cc2c(NC3CCN(C(C)C)CC3)nc(C3CCCCC3)nc2cc1OCCCN1CCCC1 [UNC0638]
Method: as §1

SB-505124 = compound: Cc1cccc(-c2[nH]c(C(C)(C)C)nc2-c2ccc3c(c2)OCO3)n1 [SB-505124]; conditions: top dose 10 µM; top dose inferred
Method: as §1

BX-795 = compound: O=C(NCCCNc1nc(Nc2cccc(NC(=O)N3CCCC3)c2)ncc1I)c1cccs1 [BX-795]; conditions: top dose 5 µM; top dose inferred
Method: as §1

PI-103 = compound: Oc1cccc(-c2nc(N3CCOCC3)c3oc4ncccc4c3n2)c1 [PI-103]; conditions: top dose 10.24 µM
Method: as §1

[1] = top dose 20 µM, screen: GDSC drug entry 1236, top dose inferred
[2] = top dose 40 µM, screen: GDSC drug entry 245

Cell Line	AUC (Tretinoin)	IC50 (Tretinoin)	AUC (GSK690693)	IC50 (GSK690693)	AUC (UNC0638; [1])	IC50 (UNC0638; [1])	AUC (UNC0638; [2])	IC50 (UNC0638; [2])	AUC (SB-505124)	IC50 (SB-505124)	AUC (BX-795)	IC50 (BX-795)	AUC (PI-103)	IC50 (PI-103)
LC-1-sq (lung squamous cell carcinoma, adherent)	0.931	> 10 µM	0.948	> 10.2 µM	0.828	15.2 µM	0.751	15.1 µM	0.953	> 10 µM	0.907	> 5 µM	0.978	> 10.2 µM
LCLC-97TM1 (large cell lung carcinoma, adherent)	0.937	> 10 µM	0.678	2.12 µM	0.756	7.43 µM	0.648	6.7 µM	0.981	> 10 µM	0.861	4.94 µM	0.313	0.181 µM
LCLC-103H (large cell lung carcinoma, adherent)	0.937	> 10 µM	0.917	> 10.2 µM	0.99	> 20 µM	0.759	12.7 µM	0.99	> 10 µM	0.866	3.78 µM	0.532	0.776 µM
LK-2 (lung squamous cell carcinoma, adherent)	0.989	> 10 µM	0.989	> 10.2 µM	0.791	8.42 µM	0.68	7.7 µM	0.971	> 10 µM	0.768	1.77 µM	0.721	2.59 µM
LN-18 (glioma, adherent)	0.992	> 10 µM	0.993	> 10.2 µM	0.987	> 20 µM	0.895	32.2 µM	0.993	> 10 µM	0.902	4.31 µM	0.994	> 10.2 µM
LNZTA3WT4 (glioma, adherent)	0.989	> 10 µM	0.982	> 10.2 µM	0.882	> 20 µM	0.869	35.7 µM	0.93	> 10 µM	0.868	4.42 µM	0.796	4.67 µM
LOU-NH91 (lung squamous cell carcinoma, adherent)	0.973	> 10 µM	0.986	> 10.2 µM	0.843	16 µM	0.831	28.6 µM	0.984	> 10 µM	0.932	> 5 µM	0.959	> 10.2 µM
LS-180 (large intestine, adherent)	0.975	> 10 µM	0.969	> 10.2 µM	0.982	> 20 µM	0.9	> 40 µM	0.975	> 10 µM	0.981	> 5 µM	0.972	> 10.2 µM
LU-135 (small cell lung carcinoma, suspension)	0.984	> 10 µM	0.915	> 10.2 µM	0.83	9.73 µM	0.639	5.62 µM	0.992	> 10 µM	0.73	1.22 µM	0.213	0.112 µM
LoVo (large intestine, adherent)	0.954	> 10 µM	0.987	> 10.2 µM	0.983	> 20 µM	0.936	> 40 µM	0.971	> 10 µM	0.926	> 5 µM	0.941	> 10.2 µM
MC-IXC (neuroblastoma, adherent)	0.311	0.217 µM	0.994	> 10.2 µM	0.996	> 20 µM	0.863	20.5 µM	0.996	> 10 µM	0.863	2.56 µM	0.73	2.33 µM
MDA-MB-330 (breast, adherent)	0.875	> 10 µM	0.96	> 10.2 µM	0.984	> 20 µM	0.839	32.8 µM	0.973	> 10 µM	0.981	> 5 µM	0.805	6.02 µM
MDA-MB-361 (breast, adherent)	0.965	> 10 µM	0.901	> 10.2 µM	0.987	> 20 µM	0.942	> 40 µM	0.98	> 10 µM	0.976	> 5 µM	0.947	> 10.2 µM
MDA-MB-415 (breast, adherent)	0.97	> 10 µM	0.962	> 10.2 µM	0.896	> 20 µM	0.927	> 40 µM	0.894	> 10 µM	0.983	> 5 µM	0.943	> 10.2 µM
MDA-MB-436 (breast, adherent)	0.984	> 10 µM	0.984	> 10.2 µM	0.98	> 20 µM	0.852	> 40 µM	0.946	> 10 µM	0.943	> 5 µM	0.904	> 10.2 µM
